# Test results reported in the supplement of paper PMC4967469.
# The IC50 comes from the fitted curve, where viability falls to half of the control; a fit beyond the top or the lowest dose is shown as a bound at that dose. The AUC spans the tested range (256-fold, ending at the top dose) of the same fit; the more sensitive the line, the further below 1. Drugs with an entry number were screened twice under separate entries, and the two screens often disagree.
# Compound: CS(=O)(=O)N1CCN(Cc2cc3nc(-c4cccc5[nH]ncc45)nc(N4CCOCC4)c3s2)CC1 [GDC0941]
# Assay: Viability of human cancer cell lines after 72 h of drug (GDSC screen)
# Conditions: screen: GDSC drug entry 1058
# Protocol: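 Human cancer cell lines in 384-well plates, medium with 10% serum, drug for 72 h over a 256-fold dose range (nine 2-fold or five 4-fold steps up to the top dose). Adherent lines were fixed and stained with the nucleic acid dye Syto60, suspension lines read with resazurin; signal relative to control wells, capped at 0 and 100%. One two-parameter sigmoid per drug and line, fitted in a mixed model over all curves with the slope shared within a line.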
Cell Line,AUC,IC50 [nM]
"HCC1428 (breast, adherent, top dose 4 µM)",0.984,> 4000
"HCC1500 (breast, adherent, top dose 4 µM)",0.95,> 4000
"HCC1569 (breast, adherent, top dose 4 µM)",0.895,> 4000
"HCC1806 (breast, adherent, top dose 4 µM)",0.988,> 4000
"HCC1937 (breast, adherent, top dose 4 µM)",0.808,2470
"HCC1954 (breast, adherent, top dose 4 µM)",0.949,> 4000
"HCC2157 (breast, suspension, top dose 4 µM)",0.462,196
"HCC2218 (breast, suspension, top dose 4 µM)",0.751,1620
"HCC-15 (lung squamous cell carcinoma, adherent, top dose 4 µM)",0.836,3790
"HCC-44 (lung adenocarcinoma, adherent, top dose 2 µM)",0.625,273
"HCC-56 (large intestine, adherent, top dose 4 µM)",0.927,> 4000
"HCC-78 (lung adenocarcinoma, adherent, top dose 4 µM)",0.818,2770
"HCC-366 (non-small cell lung carcinoma, adherent, top dose 4 µM)",0.845,3060
"HCT-15 (large intestine, adherent, top dose 4 µM)",0.694,913
"HD-MY-Z (Hodgkin lymphoma, adherent, top dose 4 µM)",0.942,> 4000
"HDLM-2 (Hodgkin lymphoma, suspension, top dose 4 µM)",0.944,> 4000
"HDQ-P1 (breast, adherent, top dose 4 µM)",0.858,> 4000
"HEC-1 (endometrium, adherent, top dose 4 µM)",0.904,> 4000
"HGC-27 (stomach, adherent, top dose 4 µM)",0.524,287
"HH (T-cell leukaemia, suspension, top dose 4 µM)",0.478,213
"HLE (liver, adherent, top dose 2 µM)",0.91,> 2000

Cell Line,AUC,IC50 [nM]
"HN (head and neck, adherent, top dose 4 µM)",0.762,1350
"HO-1-u-1 (head and neck, adherent, top dose 4 µM)",0.825,2270
"HOP-62 (lung adenocarcinoma, adherent, top dose 4 µM)",0.935,> 4000
"HOS (osteosarcoma, adherent, top dose 4 µM)",0.804,1620
"HSC-2 (head and neck, adherent, top dose 4 µM)",0.882,3680
"HSC-39 (stomach, suspension, top dose 4 µM)",0.538,313
"HT55 (large intestine, adherent, top dose 4 µM)",0.905,> 4000
"HT (B-cell lymphoma, suspension, top dose 4 µM)",0.639,583
"HT-3 (cervix, adherent, top dose 4 µM)",0.816,2260
"HT-115 (large intestine, adherent, top dose 4 µM)",0.863,2970
"HT-144 (melanoma, adherent, top dose 4 µM)",0.977,> 4000
"HT-1080 (fibrosarcoma, adherent, top dose 4 µM)",0.866,2970
"HT-1197 (bladder, adherent, top dose 4 µM)",0.92,> 4000
"HT-1376 (bladder, adherent, top dose 4 µM)",0.874,> 4000
"HUTU-80 (digestive system, adherent, top dose 4 µM)",0.723,937
"Hep 3B2_1-7 (liver, adherent, top dose 4 µM)",0.718,1040
"Hey (ovary, adherent, top dose 4 µM)",0.741,1160
"Hs633T (fibrosarcoma, adherent, top dose 4 µM)",0.705,833
"Hs683 (glioma, adherent, top dose 4 µM)",0.776,1610
"Hs746T (stomach, adherent, top dose 4 µM)",0.821,3450
"Hs766T (pancreas, adherent, top dose 4 µM)",0.792,2500

Cell Line,AUC,IC50 [nM]
"Hs939-T (melanoma, adherent, top dose 4 µM)",0.773,1700
"HuCCT1 (biliary tract, adherent, top dose 4 µM)",0.881,> 4000
"HuH-7 (liver, adherent, top dose 4 µM)",0.718,1030
"HuO9 (osteosarcoma, adherent, top dose 4 µM)",0.485,227
"HuO-3N1 (osteosarcoma, adherent, top dose 4 µM)",0.853,> 4000
"HuP-T3 (pancreas, adherent, top dose 4 µM)",0.774,1930
"HuP-T4 (pancreas, adherent, top dose 4 µM)",0.716,1060
"IA-LM (large cell lung carcinoma, adherent, top dose 4 µM)",0.854,3790
"IGR-1 (melanoma, adherent, top dose 4 µM)",0.987,> 4000
"IGROV-1 (ovary, adherent, top dose 4 µM)",0.605,558
"IHH-4 (thyroid, semi-adherent, top dose 4 µM)",0.799,1490
"IM-9 (myeloma, suspension, top dose 4 µM)",0.985,> 4000
"IMR-5 (neuroblastoma, adherent, top dose 4 µM)",0.992,> 4000
"IPC-298 (melanoma, adherent, top dose 4 µM)",0.917,> 4000
"IST-MEL1 (melanoma, adherent, top dose 4 µM)",0.902,> 4000
"IST-SL1 (small cell lung carcinoma, semi-adherent, top dose 4 µM)",0.987,> 4000
"IST-SL2 (small cell lung carcinoma, suspension, top dose 4 µM)",0.731,1130
"JAR (urogenital system, adherent, top dose 4 µM)",0.988,> 4000
"JEG-3 (urogenital system, adherent, top dose 4 µM)",0.939,> 4000
"JHH-1 (liver, adherent, top dose 4 µM)",0.663,741
"JHH-2 (liver, adherent, top dose 4 µM)",0.871,> 4000
